Measurements published in the supplement of paper PMC12645437, “Orthogonal IMiD-Degron Pairs Induce Selective Protein Degradation in Cells” (ACS Chemical Biology, 2025).
The list shows a part of the results.

target: no compound (DMSO); test: log2 fold change of degron read counts, EGFP-low vs EGFP+ sorted cells; higher = lower degron-EGFP level without compound (poor expression or instability); conditions: compound: DMSO control; 18 h
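Note: jurkat cells carrying a lentiviral library of mutant zinc finger degrons fused to EGFP plus mCherry, mCherry+ cells FACS sorted, degron abundance counted by next-generation sequencing.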

Sequence | log2 fold change of degron read counts
FWCPICGHHFTQKGNLLRHIKL | 1.34
FHCEQCGACFTQKGNLLRHIKL | -1.47
FSCSVCGHLFTQKGNLLRHIKL | 0.309
FTCEICGAKFTQKGNLLRHIKL | -1.54
LWCPICGFYCTQKGNLLRHIKL | 3.49
FTCEQCGAHFTQKGNLLRHIKL | -1.16
FTCPVCGALFTQKGNLLRHIKL | -0.191
FDCEICGHVFTQKGNLLRHIKL | -0.33
LMCPICGFCCTQKGNLLRHIKL | 1.14
FECDVCGAIFTQKGNLLRHIKL | -0.828
FQCEICGHEFTQKGNLLRHIKL | -2.3
FVCPVCGAWFTQKGNLLRHIKL | 0.977
FRCNVCGACFTQKGNLLRHIKL | 0.0111
LECEICGFMCTQKGNLLRHIKL | -0.804
FECDQCGAKFTQKGNLLRHIKL | -3.01
FYCPVCGASFTQKGNLLRHIKL | -0.226
FQCDQCGANFTQKGNLLRHIKL | -2.28
FICPQCGACFTQKGNLLRHIKL | -0.0459
FVCNVCGAIFTQKGNLLRHIKL | 0.0733
LFCNQCGFKCTQKGNLLRHIKL | 0.679
FWCNQCGHFFTQKGNLLRHIKL | 1.73
FNCEVCGAIFTQKGNLLRHIKL | -0.934
FGCPVCGAWFTQKGNLLRHIKL | 0.693
LYCNQCGFNCTQKGNLLRHIKL | 1.28
FCCNQCGREFTQKGNLLRHIKL | -1.12

Sequence | log2 fold change of degron read counts
LYCNQCGFYCTQKGNLLRHIKL | 1.93
LVCEICGFDCTQKGNLLRHIKL | -0.387
FYCNVCGANFTQKGNLLRHIKL | -0.3
FWCPICGAKFTQKGNLLRHIKL | 0.362
LGCPICGFSCTQKGNLLRHIKL | 0.889
FICNVCGADFTQKGNLLRHIKL | -1.07
LVCEICGFMCTQKGNLLRHIKL | 0.0964
FICPICGHTFTQKGNLLRHIKL | -1.12
FRCDVCGAFFTQKGNLLRHIKL | -0.829
FWCPVCGACFTQKGNLLRHIKL | 1.21
FLCNVCGALFTQKGNLLRHIKL | -0.148
FGCDVCGATFTQKGNLLRHIKL | -0.722
LYCNQCGFWCTQKGNLLRHIKL | 1.63
FHCPICGRIFTQKGNLLRHIKL | -0.377
LVCPICGFICTQKGNLLRHIKL | 1.71
LMCEICGFACTQKGNLLRHIKL | 0.0238
FFCEQCGAAFTQKGNLLRHIKL | -1
FHCPQCGAGFTQKGNLLRHIKL | -0.957
FWCEICGHWFTQKGNLLRHIKL | 1.15
FKCDQCGALFTQKGNLLRHIKL | -2.05
FYCNVCGAEFTQKGNLLRHIKL | -1.1
LACNQCGFHCTQKGNLLRHIKL | 0.122
FWCPQCGAHFTQKGNLLRHIKL | 0.403
FGCEVCGACFTQKGNLLRHIKL | -2.17
LCCPICGFRCTQKGNLLRHIKL | 0.861
